The RNAGym collection of RNA variant scans (doi:10.1073/pnas.2313332121)
This sample is rich in variants without activity.

B1: TPR 5TU (parent)
chain: GGAUCUUCUCGAUCUAACAAAAAAGACAAAUCUGCCACAAAGCUUGAGAGCAUCUUCGGAUGCAGAGGCGGCAGCCUUCGGUGGCGCGAUAGCGCCAACGUUCUCAACUAUGACACGCAAAACGCGUGCUCCGUUGAAUGGAGUUUAUCAUG

Variants of: B1
Test: polymerase ribozyme fitness, log enrichment relative to wild type (log ratio); higher = more active; in vitro selection for triplet polymerase activity
How it was run: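 Mutant libraries for each subunit of a heterodimeric triplet polymerase ribozyme were made by PCR and then transcribed. Each library underwent one round of in vitro selection in triplicate: annealing with a biotinylated primer, the partner subunit and triplets, frozen incubation at −7 °C, gel excision of extended constructs, streptavidin-bead capture and RT-PCR. Input and output libraries were Illumina-sequenced, and only genotypes with ≥10 input reads and ≥1 read per output were kept. Fitness is the logarithm, base 2, of genotype enrichment over wild-type enrichment, computed from inverse-variance-weighted replicate averages.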

Variant | polymerase ribozyme fitness (log ratio)
C32A U44G U56A G124A C129A G141U | ≤ -4.2
C32G G50A C79U G140A A142G | ≤ -4.2
C32G G92C A98U A106C G124C | ≤ -4.2
C32A A39C G59A C72A A91G | ≤ -4.2
U31G A39C G50A G92U G117A G140U U145A A147G | ≤ -4.2
C32G C57U G80C G86C G152U | ≤ -4.2
C32G A41U A52U A60U G94A C103G A110C G141U | ≤ -4.2
C32G A37C G140C | ≤ -4.2
C32G A40U G58C G62A G94A C118G | ≤ -4.2
U31A U61A U77G G81C C87U | ≤ -4.2
U31G C75U U77C G94U G124A C125A | ≤ -4.2
U31A G65U C93G U135C | ≤ -4.2
U31A G67C G70U U77C | ≤ -4.2
U31A U55A C95U G128U A137C G143U | ≤ -4.2
C32A C43U C57U C79U A89C G92U C103A U151C | ≤ -4.2
U31A C75G C95U C118U | -3.7
C32G G50U C79G G88U G94C U101C C125A | ≤ -4.2
U31G C87G U145G | ≤ -4.2
U31G C125U U130A | ≤ -4.2
U31A C69G A89U C96G U104A | -3.89
U31C U56G C123A G136C | -2.61

Variant | polymerase ribozyme fitness (log ratio)
U31G A52U A60G A98G | -4
C32G U44A C57U A97U | ≤ -4.2
U31A C57A C87U A97C G117A A119U | 1.02
C32G G65C A73G C76U A106G | ≤ -4.2
C32G A39G G58U G143C | -4.1
C32G G42A G50A A52C U53A U56A C85A A110U | ≤ -4.2
U31A G71U C125U G126C | ≤ -4.2
U31A C96G A98U C99U U151C | ≤ -4.2
C32A A41C G94U C103A C118U | ≤ -4.2
U31C A37G A60G A64C C76U | ≤ -4.2
U31G C35U A60U A115G | -3.22
U31A G34A G50U G58U C96A G136A G140U | ≤ -4.2
U31C C35G C36U G68C C69U G92A C118G G133U G140C A147G C149U | ≤ -4.2
C32A U61A C63G A66U U77G | ≤ -4.2
C32G C85A | ≤ -4.2
U31A C93A U127C | -3.92
C32A G46A U55A U90C C96U C105G A106U A113U A138G C149A | ≤ -4.2
U31C C76U C93G U102C U145G | ≤ -4.2
C32A A47U C87U | ≤ -4.2
U31G A52C A64U C75G U90C C99U U134G | ≤ -4.2
C32A A37C | ≤ -4.2

Variant | polymerase ribozyme fitness (log ratio)
U31C C32A G67A G100U U134G G141U | ≤ -4.2
C32G G42C U44A G88C C95U C103G | ≤ -4.2
C32G A40U A60C C105G U135C | ≤ -4.2
U31C U55A G86C | -2.47
C32G A47C U55A U56G G67U G88A G100C C105U A137U G141U | ≤ -4.2
U31G G124C C149G | ≤ -4.2
C32A G50U U55A C85A | ≤ -4.2
C32G A37C A47G A97C U145G | ≤ -4.2
C32A G46C U53A G67U C76A G84A | ≤ -4.2
U31C U45A A97U G117A | -4.09
U31G C35U C57U G117A | -0.0701
C32A C51G C72U C85G A97C U101G | ≤ -4.2
C32G A52G C87U A107C A119C G141C | ≤ -4.2
U31A C32G G88C A113U C116U U148A | ≤ -4.2
C32G A110G A122C G141C | -4.02
U31A A97U | -0.316
U31A G59C A64G C87U A122U A142C | ≤ -4.2
C32G G48A U55A A91U C95A G117C A122G U134G U148G | ≤ -4.2
C32A G50A C54U U55G G68A C103A | ≤ -4.2
C32A G83U A106U A115G G140C | ≤ -4.2
U31A U56A G86A A97C C105A U145C | ≤ -4.2

Variant | polymerase ribozyme fitness (log ratio)
U31A G34A G50U G58U C96A A138U U151A | ≤ -4.2
U31A G70A C76A C96U | ≤ -4.2
C32A C96U | -4.11
C32G G59C C87G | ≤ -4.2
U31G G62A C95U U104G C118U | ≤ -4.2
C32G C93U A119U A147U | ≤ -4.2
C32A U61G U82A G92U C99G | ≤ -4.2
U31A U53A G92C A122U A137C | ≤ -4.2
U31C C76G C85U G133C C149A | ≤ -4.2
U31A C51A G83C C105U A119C A137C | ≤ -4.2
C32G C87G C118G | ≤ -4.2
C32A A40G G50A C93G U151C | ≤ -4.2
C32A G67A G83A | ≤ -4.2
U31C G42A U44G A60G A66G U82A C85A G128A | ≤ -4.2
C32G C54G C95A C105A C114U | ≤ -4.2
U31G U53A C95U U135G | -3.6
U31A G46C C95U | -1.57
U31G U33A U55G C99U U111C | ≤ -4.2
U31A U44G G50C A52G U61A A120C G140U | ≤ -4.2
U31C C79A | ≤ -4.2
